“And” between values parts separate entries of the source, which are not always exact repeats. Identical values can stand only once. Out of some 270,000 compounds screened, about 620 (0.23%) were called active. This list was built around the results that the source calls inconclusive (neither active nor inactive); the mix of calls is not that of the screen. Calls come from the whole dose curve; as a rule, active = well fitted inhibition curve with a large enough effect in the polarisation, with a control signal flat (not every such curve was filed as active); inconclusive = small, poorly fitted or top-dose-only effect, or effect the other way, or a change in a side signal; inactive = no such curve, though single readings can be large or run the other way; the % refers to the polarisation. Potencies beside an inconclusive call are fits to weak or partial responses and may not hold up. A note “side channel” means that the fit belongs to a control or component signal, not to the main read-out.
Biological target: Menin (Homo sapiens) (UniProt O00255)
Sequence of UniProt O00255 (O00255 whole entry, looked up): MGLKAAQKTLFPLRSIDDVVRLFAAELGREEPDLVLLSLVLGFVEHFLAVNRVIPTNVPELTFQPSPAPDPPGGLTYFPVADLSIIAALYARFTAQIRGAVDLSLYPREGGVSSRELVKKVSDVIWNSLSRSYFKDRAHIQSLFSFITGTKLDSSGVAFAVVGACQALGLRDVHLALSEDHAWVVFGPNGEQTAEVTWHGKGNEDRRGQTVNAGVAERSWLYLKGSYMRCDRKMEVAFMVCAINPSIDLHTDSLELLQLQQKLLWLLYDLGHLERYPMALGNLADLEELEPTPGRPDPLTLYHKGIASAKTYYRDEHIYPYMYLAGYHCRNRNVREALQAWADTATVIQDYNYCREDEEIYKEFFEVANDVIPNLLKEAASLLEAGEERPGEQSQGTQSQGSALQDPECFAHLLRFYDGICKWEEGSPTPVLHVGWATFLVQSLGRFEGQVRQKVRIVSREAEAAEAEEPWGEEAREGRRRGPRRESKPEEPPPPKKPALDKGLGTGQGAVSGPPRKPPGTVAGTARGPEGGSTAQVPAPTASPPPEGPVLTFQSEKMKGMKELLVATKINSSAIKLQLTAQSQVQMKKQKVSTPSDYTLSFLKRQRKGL
Test: qHTS Assay for Inhibitors Targeting the Menin-MLL Interaction in MLL Related Leukemias: Competition With Texas Red Labeled MLL-derived Mutant Peptide; for FP activity change, negative = inhibition: % of control where 0% means no effect
Settings: fluorescence polarization; FP activity change, negative = inhibition: at 61.6 µM (top of the series)
Potency is the fitted concentration of half-maximal effect; tags give direction and shape of the fitted curve or compound fluorescence and quenching.

Potency, inconclusive:
CCc1cccc(C)c1NC(=O)c1ccc2nc(N3CCOCC3)sc2c1 35.5 µM [inhibitor, single point]
CC(=O)Cc1nsc(NC(=O)c2ccc(-c3ccc(Cl)c(C(F)(F)F)c3)o2)n1 17.8 µM [inhibitor, single point]
O=C(CN1CCCc2ccccc21)NC(=O)NCc1ccco1 3.16 µM [inhibitor, full curve, poor fit]
O=C(c1cc2cc(Cl)ccc2[nH]1)N1CCc2ccccc2C1 39.8 µM [inhibitor, single point]
Cc1ccc(NC(=O)CCNS(=O)(=O)c2cc(Br)cnc2N)cc1Cl 12.6 µM [quencher, side channel, partial curve]
COC(=O)CCCC1=CC2=CC(=O)C(C)(OC(=O)c3cccs3)C(=O)C2=CN1C1CC1 (configuration not stated) 8.91 µM [inhibitor, partial curve]
CC(C)CCC(CCNCc1ccccn1)c1ccc2c(c1)OCO2 (configuration not stated) 10 µM [fluorescent, side channel, partial curve]
COc1ccc(-c2noc(=O)n2Cc2ccccc2Cl)cc1 39.8 µM [quencher, side channel, single point]
Cc1cccc(Nc2nc(-c3ccc(F)cc3)cs2)n1 22.4 µM [quencher, side channel, partial curve]
O=C(O)c1ccc2c3c1cccc3c(=O)n1c3ccccc3nc21 10 µM [quencher, partial curve] and 6.31 µM [quencher, side channel, partial curve]
COc1cccc(CN(C(=O)c2cc3ccccc3oc2=O)C2CCS(=O)(=O)C2)c1 (configuration not stated) 0.631 µM [quencher, full curve]
CCN(CC)c1ccc2cc(-c3nc4ccccc4[nH]3)c(=O)oc2c1 11.2 µM [quencher, side channel, partial curve]
Cc1ccc(/C=C/C(=O)O)cc1S(=O)(=O)Nc1ccc2c(c1)OCO2 35.5 µM [quencher, side channel, single point]
Cc1ccc(S(=O)(=O)CCC(=O)OCC(=O)c2c[nH]c3ccccc23)cc1 14.1 µM [quencher, side channel, partial curve]
COC(=O)C1=C(C)N(c2ccc(Br)cc2)C(=O)/C1=C\c1ccco1 39.8 µM [quencher, side channel, single point]
Cc1ccc2cc(CN(CCN(C)C)C(=O)Nc3ccc(Cl)cc3)c(=O)[nH]c2c1 28.2 µM [quencher, side channel, partial curve]
O=C(Nc1cccc(-c2nnc(-c3ccccc3)o2)c1)c1ccc(Br)o1 17.8 µM [quencher, side channel, single point]
c1ccc2c(c1)NCCS2 28.2 µM [quencher, side channel, partial curve]
Cc1ccc(N2C(=O)[C@@H]3[C@H](C2=O)[C@H]2C=CC=NN2[C@@H]3C(=O)Nc2ccc(Cl)cc2)cc1 28.2 µM [quencher, side channel, single point]
CC(C)n1cc(/C=C2/NC(=O)N(c3cccc(Cl)c3)C2=O)c2ccccc21 28.2 µM [quencher, side channel, partial curve]
O=C(NCc1cccs1)c1cccc(Nc2nc3ccc(Br)cc3[nH]2)c1 28.2 µM [quencher, side channel, partial curve]
CC(=O)c1ccc(NC(=O)Nc2ccc([N+](=O)[O-])cc2)cc1 15.8 µM [quencher, side channel, partial curve]
CSc1nncn1/N=C/c1ccc2c(c1)OCO2 12.6 µM [inhibitor, partial curve]
COc1ccc2cc(C#N)c(SCC(=O)Nc3nonc3C)nc2c1 28.2 µM [inhibitor, single point]
COc1ccc(Br)cc1/C=N/N1C(=O)CSC1=S 17.8 µM [quencher, side channel, partial curve]
O=C(/C=C/c1ccccc1)NCCSc1ccc(Cl)cc1 39.8 µM [inhibitor, single point]
N#Cc1nc(-c2ccc(Cl)cc2)oc1NCc1cccc2c1OCO2 14.1 µM [quencher, side channel, partial curve]
CC1=Nc2cc(C(=O)NCCCOC(C)C)ccc2Sc2ccc(C)cc21 7.94 µM [fluorescent, side channel, partial curve]
O=C(O)CCCCCNS(=O)(=O)c1ccc2c3c(cccc13)C(=O)N2 20 µM [inhibitor, single point]
Cc1ccc(NC(=O)Nc2cccs2)c(Cl)c1 15.8 µM [quencher, side channel, partial curve]
Cc1cc(Cl)c(S(=O)(=O)N/N=C/c2ccc3c(c2)OCO3)c(Cl)c1 20 µM [quencher, side channel, partial curve]
Nc1ccc2c(c1)Nc1ccccc1CC2 20 µM [quencher, side channel, partial curve]

FP activity change, negative = inhibition, inactive:
Cn1c(Oc2ccccc2NCc2cc(Br)ccc2O)cc(=O)n(C)c1=O 27.8%
CCNc1nc(NCC)nc(NC(N)=S)n1 1.9%
COc1ccc(C2Nc3ccccc3C(=O)N2Cc2ccco2)cc1COc1ccccc1F (configuration not stated) 5.18%
O=C(O)c1cc(-c2ccc(/C=C3/SC(=S)N(Cc4ccccc4)C3=O)o2)ccc1Cl 16.3%
CCOC(=O)CNC(=O)O[C@H]1C(=O)c2ccc(OC)cc2O[C@@H]1c1ccc2c(c1)OCO2 -0.743%
